Certain results were filed several times, with different values. This is not the full list of results. There may be further records. Values given together appear to be repeats (runs, samples, wells or individuals); one of them may be the mean.

Drawing on patent publication US20090214547A1, this text covers Elisa reading for one molecule.

The target in the test is Peptide GNT-07. The test is described as follows: peptide ELISA, plate 1. (In an ELISA, binding on a coated surface is turned into a signal by an enzyme label.)

B1: 22-1C11.1 (antibody, V domains shown)
VH: VKLQESGGGVVQPGRSLRLSCAASGFTFSNYGMHWVRQAPGKGLEWVAVIWYDGSNKYYADFVKGRFTISRDNSKNTLYLQMNSLRAEDTAVYYCARRGNYYGLGSFYYYGMDVWGQGTTVTVSS
VL: DIQMTQSPATLSLSPGERATLSCRASQSVSSYLAWYQQKPGQAPRLLIYDASNRATGIPARFSGSGSGTDFTLTISSLEPEDFAVYYCQQCSNWHPTFGQGTKLEIKR
With B1, the Elisa reading was 0.24, 0.58, 1.01 [lines of one column].
